From PubChem BioAssay AID504832 (National Center for Advancing Translational Sciences (NCATS), 2011)
Screen size: about 310,000 compounds; about 18,000 (5.8%) were called active. Inconclusive means that the source gave no clear call. Such entries were picked first, then a sample of the others. The call rests on the fitted dose curve; in most records, active means well fitted inhibition curve with a large enough effect; inconclusive means small, poorly fitted or top-dose-only effect, or another doubt; inactive means no such curve, though single readings can be large or run the other way. No potency is given beside an inconclusive call; the fits are too rough.

Test: Primary qHTS for delayed death inhibitors of the malarial parasite plastid, 48 hour incubation
Conditions: P. falciparum luciferase growth in erythrocytes; series mostly up to 28.7 µM; activity change, negative = inhibition: at the top concentration
Procedure, shortened: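 A one-generation exposure of luciferase-tagged malaria parasites in RPMI 1640/Albumax erythrocyte culture, 37 C and 5% CO2. Inhibition is inferred from decreased luminescence after adding detection reagent.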
On the % scale 0 is the no-effect control and ±100 the full control effect; potency means the concentration at half of the fitted maximal effect; tags describe the fitted curve by direction and shape.

Structure (SMILES) | activity change, negative = inhibition | Potency
COc1ccc(NS(=O)(=O)c2cn(C)cn2)cc1Cl | inactive: 32.7% | 
CCOc1cccc(CN2CCN(CCc3ccccc3)C(CCO)C2)c1O (stereo not drawn) |  | inconclusive [inhibitor, single point]
O=C(/C=C/c1ccccc1)N(Cc1ccc(Cl)cc1)C1CCS(=O)(=O)C1 (stereo not drawn) |  | inconclusive [inhibitor, single point]
Cc1ccc(C)c(N2CCN(C(=O)c3ccc(CSc4nc5ccncc5[nH]4)cc3)CC2)c1 |  | inconclusive [inhibitor, partial curve, poor fit]
CSc1ccccc1OCc1cc(C(=O)N2CCN(c3ncccn3)CC2)no1 |  | inconclusive [inhibitor, partial curve]
Cc1ccc(CNC(=O)C2CCC(CNc3c(N4CCC(C)CC4)c(=O)c3=O)CC2)cc1 (stereo not drawn) |  | inconclusive [inhibitor, partial curve]
COc1ccc(/C=C2\CN(Cc3ccccc3)C/C(=C\c3ccc(OC)c(O)c3)C2=O)cc1O |  | active: 3.29 µM
Cc1cc(C2=CC(C)(c3cc(C)oc3C)Nc3nc(C(F)(F)F)nn32)c(C)o1 (stereo not drawn) |  | active: 9.28 µM
NC(=O)CC(NC(=O)Cc1ccc(Br)cc1)c1ccc(N2CCC(Cc3ccccc3)CC2)c([N+](=O)[O-])c1 (stereo not drawn) |  | inconclusive [inhibitor, partial curve]
CC(=O)Nc1sc(C)c(C)c1C(=O)OCC(=O)NCc1ccc(F)cc1 |  | inconclusive [inhibitor, single point]
COc1ccc(NC2CCCN(C(=O)CCN3Cc4ccccc4C3=O)C2)cc1 (stereo not drawn) | inactive: 9.95% | 
O=C(Nc1ccc(NC(=S)NC(=O)c2ccco2)cc1)c1ccccc1 |  | inconclusive [inhibitor, full curve]
CC(=O)NC12CC3CC(C1)CC(C(=O)OCC(=O)Nc1c(F)cccc1F)(C3)C2 |  | inconclusive [inhibitor, partial curve]
CCOC(=O)c1cc(NC(=O)N(C(C)C)C(C)C)c(C)nc1C | inactive: 30.4% | 
COc1ccc(NC(=O)CC2SC(N3CCCCC3)=NC2=O)cc1OC (stereo not drawn) | inactive: 1.93% | 
Cc1cccc(C(C)C)c1NC(=O)C1CN(S(=O)(=O)c2ccccc2)CCN1S(=O)(=O)c1ccccc1 (stereo not drawn) |  | inconclusive [inhibitor, single point]
Cc1cccc([C@@H]2C[C@H]3CN(Cc4cccc(Cl)c4)C(=O)[C@]34CCCN24)n1 |  | inconclusive [inhibitor, partial curve]
c1ccc(-c2nc(-n3ccnc3)nc(-n3ccnc3)n2)cc1 |  | active: 8.28 µM
